These results are taken from PubChem BioAssay AID485344 (National Center for Advancing Translational Sciences (NCATS), 2010).

The structures appear in SMILES notation. Hit rate of the full screen: of about 340,000 compounds, about 6,900 (2%) were called active. Cut-off read from the data, not from the text of the source: active = inhibition above about 30%; inactive = below that, where a call was filed. Only a part is listed here, and it is no random draw. The source gives no active or inactive call for entries shown without one.

What is called inhibition is the change of the read-out against control, counted positive when it falls.

This assay has as its target D(2) dopamine receptor (Homo sapiens) (UniProt P14416). The experiment in a line: HTS Assay for Allosteric Antagonists of the Human D2 Dopamine Receptor: Primary Screen for Antagonists. Note: 0% is about no effect. The conditions noted are these: HEK293 TREx D2 cells, calcium flux, dopamine EC80; at 10 µM; stronger effect = higher value. In a few lines: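 Read-out: kinetic calcium fluorescence (1 cycle/s) in inducible HEK293 T-REx D2 cells after an EC80 dopamine addition that followed 180 s compound preincubation. Loss of the dopamine response indicates antagonism.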
Sequence of UniProt P14416 (P14416 whole entry, looked up): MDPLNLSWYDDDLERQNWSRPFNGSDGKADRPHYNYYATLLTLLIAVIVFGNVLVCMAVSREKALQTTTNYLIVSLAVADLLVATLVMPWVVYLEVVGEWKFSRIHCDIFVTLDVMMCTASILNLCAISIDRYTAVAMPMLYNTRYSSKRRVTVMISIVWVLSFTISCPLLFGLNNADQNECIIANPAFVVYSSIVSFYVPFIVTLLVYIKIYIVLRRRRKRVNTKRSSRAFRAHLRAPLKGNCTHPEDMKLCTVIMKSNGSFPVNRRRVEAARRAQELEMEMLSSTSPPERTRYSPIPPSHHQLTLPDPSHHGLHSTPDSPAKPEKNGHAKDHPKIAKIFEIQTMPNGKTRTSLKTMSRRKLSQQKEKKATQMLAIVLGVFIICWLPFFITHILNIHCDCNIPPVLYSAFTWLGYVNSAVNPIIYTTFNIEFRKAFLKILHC
On the technique in general: Calcium assays in cells follow changes in intracellular calcium, usually with a dye or a luminescent sensor.
Turning to `COc1ccccc1CNC(=O)CCC1N=C2c3ccccc3N=C(SCc3ccc(Cl)cc3)N2C1=O` (stereo unspecified), the inhibition is -4.47%.
The same measure for `O=C1CCCc2cc(S(=O)(=O)NCC3CCC(C(=O)NCc4ccc(F)cc4)CC3)ccc2N1` (stereo unspecified): -1.41%; for `O=C(Nc1cccc(C(F)(F)F)c1)c1cccc(C(=O)Nc2cccc(C(F)(F)F)c2)c1`: -3.09%; for `Cc1ccc(N2CCN(S(=O)(=O)c3ccc(Cl)c4ccccc34)CC2)c(C)c1`: 4.5%.
For `CCOC(=O)c1c(C)c(-c2ccccc2)n(CC(=O)Nc2cc(C)cc(C)c2)c1C` the value was 13.2%; for `O=C(c1cc(Br)ccc1OC(F)F)N1CCN2CCCC2C1` (stereo unspecified), active: 32.8%.
With `COc1ccc(CCN(C)C(=O)C2CCN(Cc3ccc(C)cc3)CC2)cc1OC`, the inhibition is active: 47.1%.
The same measure for `Cc1ccc(CNC(=O)Cc2ccc(NC(=O)N3CCSc4ncccc43)cc2)cc1`: 2.76%; for `CCCNC(=O)c1ccc(Cn2c(=O)c3cccn3c3cccnc32)cc1`: -7.51%.
Regarding `CCc1ccccc1NC(=O)c1ccc2c(c1)nnn2C1CCCC1`, the inhibition is 8.24%.
The same measure for `CCOc1ccccc1NC(=O)CN1C(=O)COc2ccc(S(=O)(=O)NC3CCCC3)cc21`: 6.32%; for `NC(=O)c1nc(-c2ccc(F)c(F)c2)nc2c1[nH]c(=O)n2-c1cccc(Cl)c1`: 0.623%; for `CCN1CCN(CCCNC(=O)c2cnn(-c3ccc(C)cc3C)c2C2CCN(C(=O)OC(C)(C)C)CC2)CC1`: -1.13%.
The same measure for `O=S(=O)(c1ccc(Br)cc1)c1nnn2c1nc(N1CCOCC1)c1sccc12`: -2.89%; for `Cc1ccc(C(=O)Nc2ccc3nc(SCC(=O)N4CCCc5ccccc54)sc3c2)cc1`: 0.679%; for `O=C(COC(=O)c1cc(-c2ccccc2)nc2ccccc12)c1ccc(Br)cc1`: 2.03%.
The same measure for `CSc1nc2sc3c(c2c(=O)n1Cc1ccccc1)CCC(C(C)(C)C)C3` (stereo unspecified): -3.24%; for `Cc1c(C(=O)NCc2cccc(Cl)c2)sc2nc3n(c(=O)c12)CCC3`: 4.45%; for `Cc1cn2c(=O)cc(COc3ccccc3NC(=O)c3ccco3)nc2s1`: -16.3%.
On to `Cc1ccc(S(=O)(=O)NC2(C(F)(F)F)C(=O)Nc3c2c(=O)[nH]c(=O)n3-c2ccccc2)cc1` (stereo unspecified), for which the inhibition was found to be 10.5%.
For `CCOc1sc2nc(C)n(CC(=O)Nc3cccc(C)c3)c(=O)c2c1C` the value was -14.9%; for `COc1ccc(OCc2nc3ccccc3n2Cc2ccccc2Cl)cc1`, 0.768%.
The same measure for `COC(=O)c1ccccc1NC(=O)c1c(C)oc2ncn(C)c(=O)c12`: 3.39%; for `CCCCC(=O)N(c1ccc2oc(C)c(C(C)=O)c2c1)S(=O)(=O)c1ccc(F)cc1C`: 15.2%.
For `CCOc1cc(C(=O)OCc2cc(=O)n3nc(CC)sc3n2)cc(OCC)c1OCC`, the inhibition is -10.5%.
The same measure for `CCN1CCc2nc3sc(C(=O)Nc4cccc(Cl)c4C)c(N)c3cc2C1`: -1.42%; for `CC1CCC(C(=O)NC(C(=O)OCC(=O)c2ccccc2)C(C)C)CC1` (stereo unspecified): -5.91%; for `CCN1CCCC(NC(=O)c2cc([N+](=O)[O-])ccc2OC)C1` (stereo unspecified): active: 38.5%.
For `CCc1cnc2c(c1SCC(=O)c1ccccc1)c(=O)n(C)c(=O)n2C` the value was -25.1%; for `Cc1ccc(C2=NN(C(=O)CSc3nnnn3C)C(c3ccco3)C2)cc1` (stereo unspecified), active: 42.8%; for `CCC1=Nc2cc(C(=O)NCCCOC)ccc2Sc2ccc(Br)cc21`, -7.24%.
For `CC(C)CC(=O)Nc1cccc(-c2nc3ccccc3[nH]2)c1` the value was 4.2%; for `CCCCc1ccc(NC(=S)NCCc2ccc(F)cc2)cc1`, active: 30.5%; for `COc1ccccc1CNc1nc(-c2ccco2)nn1S(=O)(=O)c1ccc2ccccc2c1`, -7.71%.
Take `COCCCNC(=O)c1oc2c(c1C)-c1nn(Cc3ccccc3Cl)cc1CC2`: the inhibition came to 3.47%.
`CNC(=O)C1CCC(Cn2c(=O)c3sccc3n(CC(=O)NCc3ccccc3)c2=O)CC1` (stereo unspecified): the inhibition turned out to be 13.1%.
For `Cc1ccccc1C(=O)Nc1sc2c(c1C(=O)NCc1ccco1)CCC(C(C)(C)C)C2` (stereo unspecified) the value was 6.15%; for `Cc1ccc(SCCNC(=O)CN(c2ccccc2)S(=O)(=O)N(C)C)cc1`, 10.8%; for `CCOC(=O)COc1ccc([N+](=O)[O-])cc1-c1ccnc2cc(-c3ccc(Cl)cc3)nn12`, 5%.
For `CN(C)c1ccc(C(CNC(=O)c2ccccc2)N2CCc3ccccc32)cc1` (stereo unspecified) the value was -5.94%; for `CCc1ccc(CN(Cc2ccco2)c2cnc(S(C)(=O)=O)nc2C(=O)Nc2cccc(C)c2)cc1`, -8.9%; for `Cc1cccc(N2CCN(Cc3ccoc3)CC2)c1C`, active: 67%.
For `COc1ccc(NC(=O)C(=O)NCCc2csc(-c3ccc(Cl)cc3)n2)cc1OC` the value was 11.7%; for `COc1ccccc1NC(=O)C(=O)NCC(c1ccc2c(c1)OCO2)N1CCN(C)CC1` (stereo unspecified), 3.31%; for `CCN1CCN(c2ncc3c(n2)CCN(Cc2cc(F)cc(F)c2)C3)CC1`, -2.55%.
With `CCOc1cc2sc(N3CCC(C(=O)Nc4ccc(C)cc4C)CC3)nc2cc1Br`, the inhibition was 9.35%.
The same measure for `COc1ccc(-c2nc3scc(CCNS(=O)(=O)c4ccc(C)cc4)n3n2)cc1`: -10.4%; for `C=C(C)C(=O)Nc1nnc(-c2ccccc2C)s1`: active: 52.4%.
For the molecule `CC(C)OCCCn1c(=O)c2ccccc2n2c(-c3ccc(F)cc3)nnc12`, the inhibition is -18.4%.
The same measure for `Cn1c(=NC(=O)c2ccc(S(=O)(=O)N3CCCc4ccccc43)cc2)sc2cc(F)ccc21`: 0.923%; for `COc1ccc(S(=O)(=O)N(CC(=O)Nc2ccccc2Br)Cc2ccccc2)cc1`: 5.92%; for `CCOC(=O)c1ccc[n+](CC(=O)Nc2cc(C(F)(F)F)ccc2Cl)c1`: active: 52.5%.
The same measure for `Cc1cccc(C(=O)Nc2c(-c3ccccc3)nc3cc(C)ccn23)c1`: 11.1%; for `Cc1ccc(Cl)cc1NC(=O)c1cnc(N2CCCCC2)c2ccccc12`: -12.7%.
For `O=C(Cn1c(SCC(=O)Nc2ccc(F)cc2)nc2ccccc21)NCc1ccc(F)cc1` the value was 0.61%; for `N#Cc1ccc(C(=O)Nc2cc3nn(-c4ccccc4)nc3cc2Cl)c(F)c1`, 26.6%.
On to `CCOC(=O)C1CCN(S(=O)(=O)c2cc(Br)cc3c2N(C(=O)CC)CC3)CC1`, for which the inhibition came out at 4.4%.
For `CCCC(=O)NCC1(N(C)C)CCCCC1` the value was -21.9%; for `CN1CCN(C(=O)c2ccc3c(c2)N(Cc2ccc(C(F)(F)F)cc2)C(=O)c2ccccc2S3)CC1`, -17.3%; for `Cn1c(=O)c2c(nc(N3CCN(c4ccc([N+](=O)[O-])cc4)CC3)n2C)n(C)c1=O`, active: 33.5%.
For `COc1ccc(OC)c(C2C(C(=O)Nc3ccc(C)cc3)=C(C)Nc3nnnn32)c1` (stereo unspecified) the value was 3.61%; for `Cn1cccc1-c1cc(C(=O)N/N=C/c2ccc(F)cc2)[nH]n1`, active: 60.6%.
The same measure for `CN(CC(=O)Nc1cccc(F)c1)S(=O)(=O)c1ccc2c(c1)n(C)c(=O)c(=O)n2C`: -1.97%; for `CSc1cccc(NC(=O)c2cc3c(COC(C)=O)cnc(C)c3oc2=O)c1`: -9.2%.
Take `O=C(CC(c1cccs1)N1Cc2ccccc2C1=O)Nc1ccc(F)cc1` (stereo unspecified): the inhibition was -4.08%.
For `COc1cc(CNC(=O)c2cc3n(n2)CCCN(Cc2cccc(F)c2)C3=O)cc(OC)c1OC`, the inhibition amounted to 9.84%.
For `CC(=O)c1cccc(NC(=O)CSc2ncc3c(n2)-c2cc(Cl)ccc2N(Cc2ccccc2)S3(=O)=O)c1` the value was -4.8%; for `COc1ccc(S(=O)(=O)NCc2nc(-c3ccccc3)no2)cc1`, 12.4%.
The same measure for `O=C(CSc1nc2ccccc2n1Cc1cccc(F)c1)NCc1ccccc1`: 12.3%.
The same measure for `Cc1cc(/C=C2\SC(=Nc3ccc(F)cc3)NC2=O)c(C)n1-c1ccc(S(N)(=O)=O)cc1`: active: 38.4%; for `CCOC(=O)c1sc2ncn(CC(=O)Nc3ccc(OC)c(Cl)c3)c(=O)c2c1C`: 4.8%.
In the case of `COc1ccc(C(CNC(=O)c2oc3c(Cl)cccc3c2C)N2CCCC2)cc1` (stereo unspecified), the inhibition was active: 39.1%.
The same measure for `Cc1ccc(C(=O)O/N=C(\N)c2ccc(Br)cc2)cc1`: active: 33.6%; for `CC(C)CCNC(=O)Cn1nc(N2CCN(c3ccccc3)CC2)ccc1=O`: 0.484%; for `Cc1ccccc1Cn1c2ccccc2c2cnn(CC(=O)NC3CCCCCC3)c(=O)c21`: -8.03%.
For `COc1ccc(CNC(=O)CSc2nnc(C)c3c(C)n(-c4ccccc4)nc23)c(OC)c1`, the inhibition came to 2.18%.
The same measure for `CCc1ccc2ncc3c(-c4ccc(C)cc4)nn(CC(=O)NCc4ccccc4)c3c2c1`: 3.11%; for `O=C(c1cc2c(Cl)nc3ccccc3c2s1)N1CCCCC1`: 12%.
Take `COc1ccc(Cn2ccc3nc(C)c(C(=O)NCc4ccc(SC)cc4)cc3c2=O)cc1`: the inhibition was -13.2%.
For `Cc1ccccc1NC(=O)Cn1nc(-c2ccccc2)nc(Cc2ccccc2)c1=O` the value was 1.47%.
The same measure for `Cc1ccc(CNS(=O)(=O)c2cnc(N)nc2)cc1`: -1.18%; for `CSc1ccc(/C=C(\C(=O)O)c2ccc(S(=O)(=O)N3CCCC3)s2)cc1`: active: 35.5%; for `Cc1ccc(NC(=O)c2c(C)oc3ccc(O)c(CN4CCOCC4)c23)cc1`: -0.733%.
Turning to `CCCCNC(=O)NCC(=O)Nc1ccc(F)c(F)c1`, the inhibition was active: 40.1%.
The same measure for `CCC(=O)N1c2ccccc2CC1C(=O)NCc1ccc(CC)cc1` (stereo unspecified): 14.7%.
As to `Cc1ccc(-c2cnc(-c3ccncc3)o2)cc1`, the inhibition is active: 32.3%.
The same measure for `Cc1ccc2c(c1)c1c(c(=O)n(-c3ccccc3)c(=O)n1Cc1ccccc1C)n2C`: 0.743%; for `COc1ccc(NC(=O)Nc2nnc(N3CCCC3)s2)cc1`: 9.45%; for `CN1CCN(C(=O)c2cnn(-c3ccc(F)cc3F)c2C2CCN(C(=O)OC(C)(C)C)CC2)CC1`: -7.73%.
For `COc1ccc(Cn2c(=O)c3oc4ccccc4c3n(CC(=O)Nc3c(C)cccc3C)c2=O)cc1` the value was -2.42%; for `Cc1oc2cc3oc(=O)c(CCC(=O)NCCc4ccccc4F)c(C)c3cc2c1C`, 12.1%.
As for `Cc1ccc(OCCSc2nnc(-c3cccs3)o2)cc1`, the inhibition is -20.2%.
For `COc1ccc(-c2nc3c(c(SCc4ccc(Br)cc4)n2)Cc2c(CO)cnc(C)c2O3)cc1` the value was -2.28%; for `Cc1ccc(-n2ncc(C(=O)NCc3ccc4c(c3)OCO4)c2C2CCN(C(=O)OC(C)(C)C)CC2)c(C)c1`, 15.8%; for `Cc1ccccc1OCC(=O)Nc1ccc(S(=O)(=O)N(Cc2ccccc2)c2ccccc2)cc1`, 0.755%.
The same measure for `COC(=O)c1ccc(NC(=O)c2cc(S(=O)(=O)N3CCOCC3)cn2C)cc1`: -8.17%.
